The values that follow come from the supplement of paper PMC4723716.

± gives the uncertainty stated by the source. In all, about 9,900 compounds were measured (“viability index relative to DMSO control”: median about 1, lowest 2% from about 0.85 on). The list shows a part of the results.

The assay has as its system Plasmodium falciparum NF54 stage V gametocytes. Kind of assay: viability index relative to DMSO control (fraction); higher = less gametocyte killing. To be noted: 2.5 µM, library set: Broad Institute DOS, incubation time: 72 h. Summed up: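 Viability index is the count of red-stained particles in a well divided by the plate mean of solvent-only wells. Particles of 20–70 µm2 were counted in one imaged field per well after one to two hours with 3 µl of 2.5 µM MitoTracker Red CMXRos and 0.13% saponin. Before staining, P. falciparum NF54 stage V gametocytes in serum-free medium (0.75% gametocytemia, 1.25% hematocrit, 10 µl, 1,536-well plates) were kept with compound at 2.5 µM for 72 hr at 37°C under low oxygen.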
As to `C[C@H](CO)N1C[C@H](C)[C@@H](CN(C)C(=O)Nc2ccccc2)OCCCC[C@H](C)Oc2ccc(NC(=O)Nc3ccccc3)cc2C1=O`, the viability index worked out at 1.03 ± 0.079. On to `COc1ccc2c3c([nH]c2c1)[C@@H](CO)N(C[C@]31CN(CC2CCOCC2)C1)S(C)(=O)=O`, for which the viability index was found to be 1.07 ± 0.027. Compound `COc1cccc(-c2ccc3n(c2=O)C[C@H]2[C@H](CO)[C@@H](C(=O)NCC4CC4)[C@@H]3N2S(C)(=O)=O)c1` showed a viability index of 1.08 ± 0.053.

Take `O=C(CCN1CCCCC1)N[C@H]1CC[C@@H](CC(=O)N2CCC(Cc3ccccc3)CC2)O[C@@H]1CO`: the viability index is 1.116 ± 0.0016. In the case of `O=C(N[C@@H]1C=C[C@H](CC(=O)N2CCC(Cc3ccccc3)CC2)O[C@H]1CO)c1cnccn1` it was 0.958 ± 0.064; in that of `C[C@@H]1CCCCO[C@H](CN(C)C(=O)Nc2ccc(C(F)(F)F)cc2)[C@H](C)CN([C@H](C)CO)C(=O)c2cc(NS(=O)(=O)c3cn(C)cn3)ccc2O1`, 1.08 ± 0.11; in that of `C[C@@H]1CN([C@@H](C)CO)C(=O)CCCn2nncc2CO[C@@H]1CN(C)C(=O)NC1CCCC1`, 1.01 ± 0.082.

On to `N#Cc1cccc(-c2ccc3c(c2)[C@H]2[C@H](CCN2C(=O)CN2CCOCC2)[C@@H](CO)N3)c1`, for which the viability index is 1.087 ± 0.0067. In the case of `CNC[C@@H]1Oc2ccc(NC(=O)CCC(F)(F)F)cc2C(=O)N([C@H](C)CO)C[C@@H]1C` it was 1.03 ± 0.01.

The compound `COc1cccc(S(=O)(=O)N2C[C@@H](O)COC[C@H]3O[C@H](CC(=O)NCCCN4CCOCC4)CC[C@@H]32)c1` displayed a viability index of 1.08 ± 0.073.

Compound `O=S(=O)(c1cccc(F)c1)N1CC[C@@H]2[C@H]1c1cc(C#Cc3ccccc3F)ccc1N[C@@H]2CO` displayed a viability index of 1.062 ± 0.0015. Under `CN1C(=O)c2cc(NC(=O)c3cccc(F)c3)ccc2OC[C@H]2O[C@@H](CC(=O)NCc3ccccc3Cl)CC[C@H]21` stands 1 ± 0.16; under `C[C@@H]1CN([C@@H](C)CO)S(=O)(=O)c2ccc(C#CC(C)(C)O)cc2O[C@H]1CN(C)Cc1ccc(F)cc1`, 0.896 ± 0.032; under `O=C(CN1CCOCC1)N1CCCCN2[C@H](CO)[C@H](c3ccc(Br)cc3)[C@H]2C1`, 0.989 ± 0.016. In the case of `COc1ccccc1CNC(=O)C[C@@H]1C[C@H]2c3cc(NC(=O)C4CCC4)ccc3O[C@H]2[C@@H](CO)O1` it was 1.07 ± 0.086; in that of `O=C([C@@H]1N[C@@H]2c3ccc(-c4ccc(F)cc4)c(=O)n3C[C@@H]2[C@H]1CO)N1CCc2ccccc2C1`, 1.06 ± 0.055. Under `CN(C)CC(=O)N1[C@@H](C#N)[C@@H](c2ccccc2-c2ccc(C(=O)N(C)C)cc2)[C@@H]1CO` stands 1.11 ± 0.024; under `COc1ccc2c3c([nH]c2c1)[C@H](CO)N(C[C@]31CN(C1)S(=O)(=O)c1cccs1)C(C)=O`, 0.938 ± 0.043. With `O=C(Cc1ccccn1)N1[C@@H]2CNc3ccccc3[C@@H]2[C@@H]1CO`, the viability index worked out at 1 ± 0.029. In the case of `CC(C)NC(=O)NCC[C@H]1CC[C@H](NS(=O)(=O)c2ccc(Oc3ccccc3)cc2)[C@H](CO)O1` it was 1.14 ± 0.02; in that of `Cc1ccc(S(=O)(=O)Nc2ccc3c(c2)C(=O)N([C@@H](C)CO)C[C@@H](C)[C@@H](CN(C)S(=O)(=O)c2cccs2)OCCCC[C@@H](C)O3)cc1`, 1.13 ± 0.23. In the case of `CCC(=O)N1C[C@H](O)COC[C@@H]2O[C@@H](CC(=O)NCc3ccc(Oc4ccccc4)cc3)CC[C@H]21` it was 1.07 ± 0.039; in that of `C[C@@H]1CN([C@H](C)CO)C(=O)CCCn2cc(nn2)CO[C@H]1CN(C)C(=O)Nc1cccc(C(F)(F)F)c1`, 0.996 ± 0.07; in that of `N#C[C@H]1N[C@H](CO)[C@@H]1c1ccc(/C=C/c2ccccc2)cc1`, 1.104 ± 0.005. The compound `C[C@H](CO)N1C[C@H](C)[C@H](CN(C)Cc2ccccc2C(F)(F)F)OCc2ccccc2-c2ccccc2C1=O` came in with a viability index of 1 ± 0.015.

Turning to `Cc1cccc(-c2ccc([C@H]3[C@@H](CO)N4C(=O)CN(C(=O)c5ccc6c(c5)OCO6)C[C@@H]34)cc2)c1`, the viability index is 1.04 ± 0.023. Under `O=C1CCCn2cc(nn2)COCC2CCCN12` (stereo not given) stands 1.01 ± 0.044; under `CC(C)[C@H]1C(=O)N[C@@H](c2ccc(F)cc2)C/C=C/C[C@H](C)Oc2ccccc2C(=O)N1C.CC(C)[C@H]1C(=O)N[C@@H](c2ccc(F)cc2)C/C=C\C[C@H](C)Oc2ccccc2C(=O)N1C`, 1.07 ± 0.019; under `CN1C(=O)c2cc(NC(=O)c3cccc(Cl)c3)ccc2OC[C@H]2O[C@H](CC(=O)NC3CCCCC3)CC[C@H]21`, 1.02 ± 0.043. In the case of `O=C(NC[C@H]1[C@H](c2ccccc2)[C@@H](CO)N1Cc1cccnc1)c1ccccn1` it was 1.09 ± 0.1. Under `C[C@@H]1CN([C@H](C)CO)C(=O)CCCn2nncc2CO[C@@H]1CN(C)CC1CCCCC1` stands 1.03 ± 0.032.

In the case of `CCCN(C)C[C@@H]1OCCCC[C@@H](C)Oc2ccc(NC(=O)CCCN(C)C)cc2C(=O)N([C@H](C)CO)C[C@H]1C`, the viability index worked out at 1.1 ± 0.16.

Turning to `COc1ccc2c3c([nH]c2c1)[C@H](CO)N(C[C@]31CCN(CC1)C(=O)c1cnccn1)C(=O)NC(C)C`, the viability index amounted to 1.01 ± 0.018. For `CCCNC(=O)N1CC(=O)N2[C@H](CO)[C@H](c3ccc(-c4ccc(F)cc4)cc3)[C@H]2C1`, the viability index was 1.01 ± 0.018. On to `C[C@@H]1CN([C@@H](C)CO)C(=O)c2ccccc2-c2ccccc2CO[C@H]1CN(C)C(=O)[C@H]1CCCN1C`, for which the viability index is 1.05 ± 0.03. With `CCC(=O)Nc1ccc2c(c1)C(=O)N(C)C[C@H](OC)[C@@H](C)CN(C(=O)Cc1cccnc1)[C@H](C)CO2`, the viability index stood at 1.11 ± 0.083. In the case of `CO[C@H](CN(C)Cc1cc(F)ccc1F)[C@H](C)CN([C@@H](C)CO)S(=O)(=O)c1ccc(C)cc1` it was 1.07 ± 0.12.

In turn, `O=C(c1cccnc1)N1CC(=O)N2[C@H](CO)[C@H](c3ccc(-c4ccccc4F)cc3)[C@H]2C1` had a viability index of 1.04 ± 0.041. In the case of `C/C=C/c1ccc([C@H]2[C@@H](CO)N(CCC(F)(F)F)C23CN(C(=O)CC2CC2)C3)cc1` it was 0.991 ± 0.085. In the case of `CCC(=O)N1[C@H](C#N)[C@@H](c2ccccc2-c2ccccc2)[C@@H]1CO` it was 1.14 ± 0.039; in that of `COc1ccc(C(=O)N2C[C@@H]3[C@H](c4ccccc42)[C@H](CO)N3Cc2ccccc2Cl)cc1`, 1 ± 0.04. Under `CC[C@H]1C/C=C\C[C@@H](C(C)C)NC(=O)CCC(=O)N1` stands 1 ± 0.096; under `CO[C@@H]1CC[C@@H]2CCN(C)C(=O)[C@@H](C)CN(C)C(=O)c3cc(C#N)ccc3OC[C@H]1O2`, 0.976 ± 0.1. Compound `C/C=C/c1ccc([C@@H]2[C@@H](C#N)N(c3nc(CC)cs3)[C@@H]2CO)cc1` returned a viability index of 1.09 ± 0.013. The compound `C[C@@H]1CN([C@H](C)CO)C(=O)CCCn2nncc2CO[C@@H]1CN(C)Cc1cccc2c1OCCCO2` came in with a viability index of 0.98 ± 0.043. `COc1cccc(S(=O)(=O)N2[C@@H]3CNC[C@H]2[C@@H]3c2ccc(/C=C/c3ccccc3)cc2)c1` yielded a viability index of 0.99 ± 0.022. Under `C[C@H](CO)N1C[C@H](C)[C@@H](CN(C)Cc2ccc(Cl)c(Cl)c2)Oc2ccc(NC(=O)CCCN(C)C)cc2C1=O` stands 0.916 ± 0.13; under `N#Cc1ccc(-c2ccc([C@H]3[C@H](CO)N4C(=O)CNC[C@@H]34)cc2)cc1`, 1.05 ± 0.065; under `Cc1ccccc1-c1ccc([C@@H]2[C@H]3CNC[C@@H]2N3S(=O)(=O)c2ccccc2)cc1`, 1.088 ± 0.0098. Under `O=C(C[C@H]1CC[C@@H]2NC[C@H](O)COC[C@H]2O1)NC1Cc2ccccc2C1` stands 1.05 ± 0.044.

On to `CN1C(=O)c2cc(NC(=O)c3cccc(C(F)(F)F)c3)ccc2OC[C@@H]2O[C@@H](CC(=O)NCCN3CCCC3)CC[C@@H]21`, for which the viability index worked out at 0.919 ± 0.11. In the case of `CN1C(=O)c2cc(NC(=O)c3ccc(F)c(F)c3)ccc2OC[C@H]2O[C@@H](CC(=O)Nc3ccc4c(c3)COC4)CC[C@@H]21` it was 1.038 ± 0.0069; in that of `COc1cccc(C#Cc2ccc([C@H]3[C@H](CO)N4C(=O)CN(C(=O)Cc5cccnc5)C[C@@H]34)cc2)c1`, 0.945 ± 0.048. Under `O=C(NC1CCCCC1)N1CC(=O)N2[C@@H](CO)[C@H](c3ccc(-c4ccncc4)cc3)[C@@H]2C1` stands 1.05 ± 0.043. In the case of `COc1ccc(NC(=O)Nc2cccc3c2O[C@H](CN(C)Cc2ccc(C(=O)O)cc2)[C@@H](C)CN([C@H](C)CO)C3=O)cc1` it was 0.985 ± 0.14.

In turn, `CCCNC(=O)N1[C@H](CO)[C@H](c2ccccc2-c2cccc(C)c2)[C@@H]1C#N` yielded a viability index of 1.06 ± 0.18.

In turn, `O=C(C1CCCCC1)N1CC(=O)N2[C@H](C1)[C@H](c1ccc(-c3ccccc3F)cc1)[C@@H]2CO` came in with a viability index of 1.01 ± 0.014. In the case of `CCCC(=O)Nc1ccc2c(c1)C(=O)N(C)C[C@@H](OC)[C@H](C)CN(Cc1cc(-c3ccccc3)on1)[C@H](C)CO2` it was 1.04 ± 0.067; in that of `C[C@@H]1CCCCO[C@@H](CN(C)C(=O)Nc2ccc(C(F)(F)F)cc2)[C@H](C)CN([C@H](C)CO)C(=O)c2cc(NS(=O)(=O)c3cn(C)cn3)ccc2O1`, 1.13 ± 0.081; in that of `C[C@@H](O)C#Cc1ccc([C@H]2[C@@H](CO)N3CCCCN(CC4CC4)C[C@@H]23)cc1`, 1.06 ± 0.059. Compound `C/C=C/c1ccc([C@H]2[C@H](CO)N3C(=O)CN(C(=O)Nc4cccc(OC)c4)C[C@@H]23)cc1` registered a viability index of 1.02 ± 0.03. In the case of `C[C@@H]1CN([C@H](C)CO)C(=O)c2ccccc2-c2ccccc2CO[C@H]1CN(C)S(=O)(=O)c1cccs1` it was 0.934 ± 0.052. Turning to `COc1ccccc1NC(=O)C[C@H]1CC[C@H]2[C@@H](COc3ccc(NS(C)(=O)=O)cc3C(=O)N2C)O1`, the viability index came out at 1.1 ± 0.037.

The compound `O=C(CCN1CCCCC1)N[C@@H]1CC[C@@H](CC(=O)N2CCC(Cc3ccccc3)CC2)O[C@H]1CO` came in with a viability index of 0.992 ± 0.03. Under `COCC(=O)N1[C@@H]2CN(C(=O)c3cccnc3)c3ccccc3[C@@H]2[C@@H]1CO` stands 1.05 ± 0.064. Compound `CC[C@H]1C/C=C\C[C@H](c2ccc(OC)cc2OC)NC(=O)[C@H](C)CC(=O)N1` registered a viability index of 0.972 ± 0.098. Under `C[C@H](CO)N1C[C@H](C)[C@@H](CN(C)Cc2ccc(Cl)c(Cl)c2)OCCCC[C@H](C)Oc2ccc(NS(=O)(=O)c3cccs3)cc2C1=O` stands 1.029 ± 0.0071; under `COc1ccc(NC(=O)N(C)C[C@H]2Oc3ccc(NC(=O)Nc4cccc5ccccc45)cc3CC(=O)N([C@@H](C)CO)C[C@H]2C)cc1`, 0.926 ± 0.11.

As for `COCC#Cc1ccc([C@H]2[C@H]3CN(C(=O)CN4CCOCC4)CC(=O)N3[C@H]2CO)cc1`, the viability index was 1.01 ± 0.12.

Compound `COCC(=O)N1[C@@H](C#N)[C@H](c2ccccc2-c2ccccc2F)[C@@H]1CO` came in with a viability index of 1.07 ± 0.014.
